From publication PMC4336329 (PLoS ONE, 2015)
The whole screen tested about 310,000 compounds, of which about 2,200 (0.71%) showed an effect of 50% or more. Effects have a minus sign here. The list shows a part of the results.

target: human ether-à-go-go-related gene (hERG) potassium channel (human, UniProt Q12809); assay: primary screen, population patch clamp on CHO cells stably expressing hERG
Sequence (Q12809 whole entry, looked up): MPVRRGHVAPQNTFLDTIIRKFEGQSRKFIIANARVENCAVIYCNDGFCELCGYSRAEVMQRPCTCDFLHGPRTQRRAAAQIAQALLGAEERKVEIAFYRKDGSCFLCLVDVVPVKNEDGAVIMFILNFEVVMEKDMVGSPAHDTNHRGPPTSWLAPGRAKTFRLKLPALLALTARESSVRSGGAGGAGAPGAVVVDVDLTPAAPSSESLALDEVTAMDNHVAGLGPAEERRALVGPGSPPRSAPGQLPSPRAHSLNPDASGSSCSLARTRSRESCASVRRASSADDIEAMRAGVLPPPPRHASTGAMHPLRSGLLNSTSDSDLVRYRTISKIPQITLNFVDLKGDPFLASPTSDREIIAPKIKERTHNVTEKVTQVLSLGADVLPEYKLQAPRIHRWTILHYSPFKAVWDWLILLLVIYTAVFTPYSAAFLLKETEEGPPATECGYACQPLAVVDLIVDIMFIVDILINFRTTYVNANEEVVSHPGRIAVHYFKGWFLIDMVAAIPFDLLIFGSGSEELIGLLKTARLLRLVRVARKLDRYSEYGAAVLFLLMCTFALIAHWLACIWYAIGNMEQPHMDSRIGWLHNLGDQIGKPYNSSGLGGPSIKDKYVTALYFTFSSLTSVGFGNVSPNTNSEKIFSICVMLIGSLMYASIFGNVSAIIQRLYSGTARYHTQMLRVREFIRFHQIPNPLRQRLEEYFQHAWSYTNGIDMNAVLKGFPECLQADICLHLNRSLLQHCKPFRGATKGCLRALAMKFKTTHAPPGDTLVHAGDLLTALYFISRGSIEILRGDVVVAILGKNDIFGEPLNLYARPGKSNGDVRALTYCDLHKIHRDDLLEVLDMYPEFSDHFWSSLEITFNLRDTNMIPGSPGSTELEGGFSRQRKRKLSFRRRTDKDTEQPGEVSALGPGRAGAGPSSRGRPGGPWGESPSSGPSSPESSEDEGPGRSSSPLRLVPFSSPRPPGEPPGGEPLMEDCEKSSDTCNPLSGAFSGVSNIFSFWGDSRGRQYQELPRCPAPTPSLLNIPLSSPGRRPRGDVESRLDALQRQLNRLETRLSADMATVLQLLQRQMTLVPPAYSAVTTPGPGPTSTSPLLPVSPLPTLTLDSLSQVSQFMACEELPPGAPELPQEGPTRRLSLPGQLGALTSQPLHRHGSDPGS

Row | SMILES | hERG current change (%, negative = inhibition) at 1uM
1 | O=C(NCCCn1ncc2ccccc21)c1cc(COc2c(F)cccc2F)on1 | 6.17%
2 | COc1cc2nc(C3CCC3)n(NC(=O)C(OC(C)=O)c3ccccc3)c(=O)c2cc1OC (centres unmarked) | 17.3%
3 | O=C(O)c1ccc(NS(=O)(=O)c2cc(Cl)ccc2Cl)cc1 | -0.322%
4 | COc1ccc(CCNC(=O)CN(C2CCCCC2)S(C)(=O)=O)cc1 | 4.21%
5 | COc1cccc(-n2nnc3c(=O)n(Cc4ccc(F)cc4)cnc32)c1 | 2.19%
6 | CCCCC(=O)N1C/C=C\C(c2ccc(OC)cc2)N(Cc2ccc(F)cc2)C(=O)C1 (centres unmarked) | 5.48%
7 | CCCc1c(C(=O)NNc2cccc(Cl)c2)cnn1-c1ccccc1 | 9.12%
8 | O=C1S/C(=C\c2ccc(N3CCOCC3)o2)C(=O)N1Cc1ccc(F)cc1 | 0.642%
9 | CCCCN(C)C(=O)CC(NS(=O)(=O)c1ccc(NC(C)=O)cc1)C(C)C (centres unmarked) | 4.1%
10 | CCC(=O)c1cc2c(C)cc(=O)oc2c(C)c1OC(=O)C(C)C | 13.3%
11 | O=C(N/N=C/c1ccc([N+](=O)[O-])o1)c1ccc2c(c1)OCO2 | 6.92%
12 | CCCCNC(=O)CNC(=O)c1nn(-c2ccc(OC)c(Cl)c2)c(=O)c2ccccc12 | 10.1%
13 | C=CCn1c(O)c(C(CC)=NCCc2c[nH]c3ccccc23)c(=O)[nH]c1=O | 8.83%
14 | Cc1ccc(C(=O)O)cc1NC(=O)c1ccc(Cn2nc(C)c(Cl)c2C)o1 | 17.4%
15 | Cc1cc(N2CCOCC2)n2nc(C)c(-c3ccccc3Cl)c2n1 | -7.57%
16 | NC1=C([N+](=O)[O-])C(c2ccc3c(c2)OCO3)c2c(c3ccccc3oc2=O)O1 (centres unmarked) | -22.9%
17 | CCOc1ccc(N(CC(=O)NC2CCCC2)C(=O)CSc2nnc(COc3ccccc3)o2)cc1 | 4.73%
18 | O=C(CSc1ccc(Cl)cc1)N/N=C/c1ccc([N+](=O)[O-])o1 | 10.9%
19 | CCOc1ccc(S(=O)(=O)NCCC(=O)OCC(=O)c2ccc[nH]2)cc1 | 16.2%
20 | O=C(NCc1ccco1)c1cnccn1 | 6.38%
21 | CC(NC(=O)Nc1ccc(F)cc1F)c1ccc2c(c1)OCO2 (centres unmarked) | 5.7%
22 | CC1CCN(c2nc(CN3CCCCC3)nc3scc(-c4ccccc4)c23)CC1 | 3.12%

Row | SMILES | hERG current change (%, negative = inhibition) at 1uM
23 | O=C1CCC(C(=O)Nc2ccccc2)N1 (centres unmarked) | 19.9%
24 | O=C1OC(CO)CN1Cc1ccccc1 (centres unmarked) | 8.04%
25 | CCS(=O)(=O)N1CCN(S(=O)(=O)c2ccccc2)CC1.O=C(O)C(=O)O | 0.258%
26 | C[C@@H]1CCC(=O)N(C[C@@H](C)CC#N)CC1 | 20%
27 | Cc1ccc(OCC(=O)NNC(=O)Cn2nnc(-c3ccccc3)n2)cc1 | 15.1%
28 | Cc1[nH]n(-c2c(Cl)cc(Cl)cc2Cl)c(=O)c1C=Nc1ccc(S(=O)(=O)N2CCOCC2)cc1 | 2.49%
29 | CCOc1ccc(C(=O)CCC(=O)Nc2ncccc2O)cc1 | 10.7%
30 | O=C(Cc1ccc(Br)cc1)NCCN1CCOCC1 | 10.2%
31 | CCc1ccc2c(c1)c1nc(C)sc1n2CC | -1.98%
32 | CCN1CCN(C(=O)COc2ccc(S(=O)(=O)N3CCOCC3)cc2C)CC1 | 15.3%
33 | COc1cc(C2NC(=O)N(C)C(C)=C2C(=O)OCc2ccccc2)cc(Br)c1O (centres unmarked) | 12%
34 | CCN(CC(=O)NCc1ccc(Cl)cc1)C(=O)CSCC(=O)Nc1ccc(OC)cc1 | -28.8%
35 | Cc1nn(Cc2ccccc2)c(C)c1C(=O)NCc1ccccc1 | 8.88%
36 | CCN1CCN(C(=O)c2cn(CC)c3ccc(S(=O)(=O)N(C)C)cc3c2=O)CC1 | 10%
37 | Cc1c(N/C(=N/S(=O)(=O)c2ccccc2)c2ccc(Cl)cc2)c(=O)n(-c2ccccc2)n1C | 1.87%
38 | C=CCN=C(NC#N)SCc1ccccc1Cl | 10.6%
39 | CC(Cc1ccccc1)NC(=O)c1ccc([N+](=O)[O-])cc1 (centres unmarked) | 1.18%
40 | Cc1onc(-c2ccccc2Cl)c1C(=O)N[C@@H]1C(=O)N2[C@@H]1SC(C)(C)[C@@H]2C(=O)[O-].[Na+] | 3.5%
41 | COc1ccccc1/C=C1\SC(=S)N(CCC(=O)NC2=NCCS2)C1=O | 8.45%
42 | CCCCc1nc2ccccc2c(N)c1CCC.O=C(O)c1cc([N+](=O)[O-])ccc1Cl | -28.7%
43 | CCCCC(=O)N(c1ccc(OC)cc1)C1C=CS(=O)(=O)C1 (centres unmarked) | 9.23%
44 | CCN1C(=O)/C(=C/c2c(C)nn(C)c2C)SC1=S | -0.212%
